Measurements published in publication PMC7819943, “Rice protein-binding microarrays: a tool to detect cis-acting elements near promoter regions in rice”.
Some of the results follow.

These sequences were tested against T1, OsWOX13 (Oryza sativa, UniProt Q5QMM3 1-267) (assay: protein-binding microarray (RPBM); PBS, 2% BSA, 51.3 ng/ul salmon testes DNA, 50 uM zinc acetate, 200 nM TF, 25 C, 1 h; high values mean tight binding). Conditions: protein: recombinant; tags: N-terminal polyhistidine and DsRed monomer fusion (pET32a); label: CyDye5-dUTP incorporated in the synthesized complementary strand; 3' TTTTT single-stranded linker to array surface; dsDNA, one strand shown.
T1 sequence: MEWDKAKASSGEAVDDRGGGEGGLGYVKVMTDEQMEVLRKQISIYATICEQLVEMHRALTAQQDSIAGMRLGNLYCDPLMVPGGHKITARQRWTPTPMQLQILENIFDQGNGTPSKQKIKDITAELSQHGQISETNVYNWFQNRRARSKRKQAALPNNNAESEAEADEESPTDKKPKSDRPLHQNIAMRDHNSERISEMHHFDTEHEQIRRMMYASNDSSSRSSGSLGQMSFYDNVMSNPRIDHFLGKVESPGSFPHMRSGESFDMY
In short: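 Transcription factors were each fused at the N-terminus to a polyhistidine tag plus DsRed and expressed in E. coli BL21-CodonPlus before Ni–NTA purification. Binding to a double-stranded custom Agilent array was carried out with 200 nM protein at 25 °C for 1 h in PBS, 2% BSA, salmon testes DNA and 50 µM zinc acetate. The binding signal is per-feature fluorescence intensity, in arbitrary units, on an Axon 4000B scanner.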
In the case of “AAATTAATTAGAGGCTGCAATATATATATTAGCGGATCGACGGAGTCACCTAGTGCAG”, the binding signal is reported as 21600 fluorescence intensity (a.u.). “TTAATTAAATTTGTCTGTGTGAGCTGGGATAGGATGCTGCCGGAGTCACCTAGTGCAG” was tested, and the binding signal was 43200 fluorescence intensity (a.u.). “CCATCAACAACTCTGATTAGAATGGAATTAACGTTCTTCTCGGAGTCACCTAGTGCAG” was tested, and the binding signal was 9000 fluorescence intensity (a.u.). For “TGCCCAGCCAATCACCGAACGAAGCCGGCGCCGCTTTCTTCGGAGTCACCTAGTGCAG”, the binding signal was 4040 fluorescence intensity (a.u.). In the case of “TGAAATTTCTACGTAAATCAAGGGCTCGTTCACTTTGCTACGGAGTCACCTAGTGCAG”, the binding signal is reported as 5380 fluorescence intensity (a.u.). “TACAAGGTCCATGATTTATGATTTTGTTTCAGACCATGGACGGAGTCACCTAGTGCAG” was tested, and the binding signal was 4550 fluorescence intensity (a.u.). With “CTTTGATGACTTCCCGTCCATCAGAGTCAACAGCTGACCACGGAGTCACCTAGTGCAG” the binding signal was 5720 fluorescence intensity (a.u.). “TTTAAAATTAATGCTGTGTTATGTGTCCTTAAGTCCTTGACGGAGTCACCTAGTGCAG” was tested, and the binding signal was 5440 fluorescence intensity (a.u.). With “CGCTGCTTCTGATCATCTCCCGTTCTTGCATTCTTCTTCTCGGAGTCACCTAGTGCAG” the binding signal was 4180 fluorescence intensity (a.u.). “GATGATTTGGAGGTAGGATTTGGCTATACTATTAAACTTGCGGAGTCACCTAGTGCAG” was tested, and the binding signal was 12800 fluorescence intensity (a.u.). In the case of “AAATTAACTATAGATGATTAGGAGCCAGTAGTTGTCTATACGGAGTCACCTAGTGCAG”, the binding signal is reported as 31600 fluorescence intensity (a.u.). In the case of “TTGTGATTGGCAGATGCCATAGTCAGGGCATTAGCTCTTTCGGAGTCACCTAGTGCAG”, the binding signal is reported as 46400 fluorescence intensity (a.u.). “GAGATTTTGACTATTAATTTTCATCGTCTTTGGTTTTAAGCGGAGTCACCTAGTGCAG” was tested, and the binding signal was 4120 fluorescence intensity (a.u.). In the case of “TAGATAGATTTAGTTATACATAATAACTATAACTATTTATCGGAGTCACCTAGTGCAG”, the binding signal is reported as 6300 fluorescence intensity (a.u.). “TAATGCTAATTGTTCGTACAGTAATACCTGGATGTTTTCCCGGAGTCACCTAGTGCAG” was tested, and the binding signal was 10200 fluorescence intensity (a.u.). In the case of “GCAAACAATCAGGCTCCATTCCTTCACCGCGAAGCTGCTCCGGAGTCACCTAGTGCAG”, the binding signal is reported as 3240 fluorescence intensity (a.u.). In the case of “TTCGAACCTTGATTATACAGTACAGTAGGTACACTACAACCGGAGTCACCTAGTGCAG”, the binding signal is reported as 3540 fluorescence intensity (a.u.). In the case of “CAGTTATGTGATTGGACTATAAATACGATATATGTTGTGTCGGAGTCACCTAGTGCAG”, the binding signal is reported as 28700 fluorescence intensity (a.u.). “TCTAAGTAACAGATGTAACTGGAAAGAAAATGATGAATGGCGGAGTCACCTAGTGCAG” was tested, and the binding signal was 6390 fluorescence intensity (a.u.). For “CAGTTAATTGAGTTGATGGCCACTCCTCTGCTGCTCGTCGCGGAGTCACCTAGTGCAG”, the binding signal was 60700 fluorescence intensity (a.u.). In the case of “AAAATTTCATCATCAATTTATTCAACAATGGGAGGGACCCCGGAGTCACCTAGTGCAG”, the binding signal is reported as 13500 fluorescence intensity (a.u.). With “AATTTGATTAGGTGAGTACACCCAATTTTCCGGAGGACGACGGAGTCACCTAGTGCAG” the binding signal was 19800 fluorescence intensity (a.u.). “CCTTGACAGTGCACACGCCAAAACCACCGCTAACTCCCACCGGAGTCACCTAGTGCAG” was tested, and the binding signal was 5060 fluorescence intensity (a.u.). For “TTTAAATGGATGATAAGTAGAATTATTTATCTTTGGTCTACGGAGTCACCTAGTGCAG”, the binding signal was 22800 fluorescence intensity (a.u.). “CAACTTTAATTTAGGTGACTTTTCCATTTGAAATCATTTACGGAGTCACCTAGTGCAG” was tested, and the binding signal was 5300 fluorescence intensity (a.u.). For “GCAAAATTGATCCATTTTCCTCCTGGATTAGTCAATTAGGCGGAGTCACCTAGTGCAG”, the binding signal was 26600 fluorescence intensity (a.u.). With “TTAATAAAACTAATTTGGCGTTATTGACCTTGCTAACTTTCGGAGTCACCTAGTGCAG” the binding signal was 3240 fluorescence intensity (a.u.). In the case of “CCTGAGCATGCATGATTGCTTATAGAAACATTTTGTTTTACGGAGTCACCTAGTGCAG”, the binding signal is reported as 16300 fluorescence intensity (a.u.). In the case of “TACGGTAATTTAGTGAAACCAAAATGCAGGACGACATTACCGGAGTCACCTAGTGCAG”, the binding signal is reported as 4960 fluorescence intensity (a.u.). In the case of “TCAGTAAGTCAACCGGACATGATTGCATTTTCATCGCGGTCGGAGTCACCTAGTGCAG”, the binding signal is reported as 8440 fluorescence intensity (a.u.). In the case of “AAAATTTATATGCCCAATTTAAATTTGAATTCTGATTCGGCGGAGTCACCTAGTGCAG”, the binding signal is reported as 5770 fluorescence intensity (a.u.). With “CTCCAAAATATCCTCCACATAATTGACAGTTCTAGCTACTCGGAGTCACCTAGTGCAG” the binding signal was 3770 fluorescence intensity (a.u.). In the case of “GAGGATGATCTTGATAATTAGTTTCTAACATCGAAATTGACGGAGTCACCTAGTGCAG”, the binding signal is reported as 10400 fluorescence intensity (a.u.). With “AAAATTATCAAATTCTTTCTTAATAATCTGCAATTCGTGTCGGAGTCACCTAGTGCAG” the binding signal was 4270 fluorescence intensity (a.u.). In the case of “GAATCAAATTAAATTTTAATCGGCTAAAGCCATACTTCATCGGAGTCACCTAGTGCAG”, the binding signal is reported as 14200 fluorescence intensity (a.u.). With “GGACTCGCAGAAAAGAATCAATCAATCACTAGTCTACCTTCGGAGTCACCTAGTGCAG” the binding signal was 16300 fluorescence intensity (a.u.). “TGATTAACTAGAAAATAATTATACTTATCAAAAGATTATCCGGAGTCACCTAGTGCAG” was tested, and the binding signal was 4100 fluorescence intensity (a.u.). For “AACTTGTTTTAAATTATTGGTTAAGCTAATTTATTAAAATCGGAGTCACCTAGTGCAG”, the binding signal was 6500 fluorescence intensity (a.u.). For “ATTAATTGAGTTTTATTTTATTGTAAATTTGATTTAATAGCGGAGTCACCTAGTGCAG”, the binding signal was 37200 fluorescence intensity (a.u.). “AGTTAAATTTTAATTTGTATGTGTGTGAAGTGATATATATCGGAGTCACCTAGTGCAG” was tested, and the binding signal was 15400 fluorescence intensity (a.u.). For “TTTGATTGCCCTTCTATATCGACTTTCGATCGCCTTTTCTCGGAGTCACCTAGTGCAG”, the binding signal was 26000 fluorescence intensity (a.u.). With “TCTGTCTATCTATCTAATCTTCACTTGGAAGCAAATTTTGCGGAGTCACCTAGTGCAG” the binding signal was 3370 fluorescence intensity (a.u.). In the case of “ACATATATAAATTAAGTTGTGGGTGACACTGACATCCATCCGGAGTCACCTAGTGCAG”, the binding signal is reported as 3880 fluorescence intensity (a.u.). With “ATGATTCTTGAATTGTTCTCATCTCATTTGATTTCGTCCACGGAGTCACCTAGTGCAG” the binding signal was 5550 fluorescence intensity (a.u.). “TACTCCCCGATTGAGGTTGATAGAAGATTGTCAACGATATCGGAGTCACCTAGTGCAG” was tested, and the binding signal was 9550 fluorescence intensity (a.u.). In the case of “GAATTAATGATTGAGAGGAAGCTGAAGCTGAAGTTGTTGCCGGAGTCACCTAGTGCAG”, the binding signal is reported as 39900 fluorescence intensity (a.u.). In the case of “ATATATATATATATATATATATATATATAGATTCATTAACCGGAGTCACCTAGTGCAG”, the binding signal is reported as 27000 fluorescence intensity (a.u.). “TCTTAATATATTAATGCTGTGTTCAGGAGAAGAGGTTCATCGGAGTCACCTAGTGCAG” was tested, and the binding signal was 3470 fluorescence intensity (a.u.). With “GCGTAATTGCTCCATGATTTGACAATGTGGTGCTACATTACGGAGTCACCTAGTGCAG” the binding signal was 47500 fluorescence intensity (a.u.). In the case of “GATCTGAATGAAATAATTTGACCATGGAAAGGAAACCCTGCGGAGTCACCTAGTGCAG”, the binding signal is reported as 8040 fluorescence intensity (a.u.). In the case of “CGCGAGCTAATCATCACTCCCACGTCTCAGCTCATTCGTCCGGAGTCACCTAGTGCAG”, the binding signal is reported as 3840 fluorescence intensity (a.u.). In the case of “GGTTAATGGAACATATTCTACTACGAATATGAATACGAATCGGAGTCACCTAGTGCAG”, the binding signal is reported as 9050 fluorescence intensity (a.u.). “AGAAATCGTGATTGTTATTAAGCGAGAAGGTAGAAACATCCGGAGTCACCTAGTGCAG” was tested, and the binding signal was 8880 fluorescence intensity (a.u.). “TTATAATCAGGGTTTAGATGGAGAAAACAAACAGATAGAGCGGAGTCACCTAGTGCAG” was tested, and the binding signal was 9790 fluorescence intensity (a.u.).
